# Source: PubChem BioAssay AID686979 (National Center for Advancing Translational Sciences (NCATS), 2013)
# In all, about 420,000 compounds went through this assay and about 50,000 (12%) were called active. This list was built around the results that the source calls inconclusive (neither active nor inactive); the mix of calls is not that of the screen. Calls follow the shape of the dose curve; as a rule, active = well fitted inhibition curve with a large enough effect; inconclusive = small, poorly fitted or top-dose-only effect; inactive = flat fitted curve, though single readings scatter. No potency is given beside an inconclusive call; the fits are too rough.
# Assay: qHTS for Inhibitors of human tyrosyl-DNA phosphodiesterase 1 (TDP1): qHTS in cells in presence of CPT; also: nearly all actives have a fitted effect of over 55% in size
# Conditions: chicken DT40 Tdp1-/-;hTDP1 cells + 20 nM CPT, ATP luminescence, 48 h; activity change, negative = growth inhibition: at 46.2 µM (top of the series) unless noted
# Summary of the method: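 Chicken DT40 Tdp1-/- cells stably complemented with human TDP1 were seeded at 400 cells/well in medium containing 20 nM camptothecin, exposed to pin-transferred compounds, and grown at 37 °C for at least 48 hr. Viability was read as ATP luminescence.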
# % is scaled to controls: 0 for no effect and ±100 for the full control effect; potency is read from the fitted curve at half-maximal effect; tags tell the direction and shape of the fitted curve.
Structure (SMILES),Potency,"activity change, negative = growth inhibition"
O=C(Cc1cccc(NC(=O)C2CCCN(C(=O)CCc3ccccc3)C2)c1)Nc1cccc(C(=O)N2CCOCC2)c1 (stereo unspecified),"inconclusive [inhibitor, single point]",
CCOC(=O)c1cnc(Nc2nc3ccccc3o2)nc1CN1CCN(C)CC1,active: 18.4 µM,
O=C(CSc1oc(-c2ccccc2)nc1S(=O)(=O)c1ccccc1)NCC1CCCO1 (stereo unspecified),"inconclusive [inhibitor, single point]",
Cc1[nH]c2ccccc2c1-c1csc(NC(=O)CSCCO)n1,"inconclusive [inhibitor, single point]",
C#CCOCCOCCOCCNc1nc(N2CCN(C(=O)[C@H]([C@@H](C)O)n3cc(CCCCN)nn3)CC2)nc(N2CCN(C(=O)[C@H](CCCCN)n3cc(CCC(=O)O)nn3)CC2)n1,,inconclusive: -20.4% [inhibitor]
Cc1cc(NC(=O)C2(c3ccccc3)CCCC2)no1,,inactive: -27.3%
CCc1ccccc1N(CC)C(=O)c1c(C)oc2ncn(C)c(=O)c12,"inconclusive [inhibitor, single point]",
CCn1c(C)c(C)c2cc(C(=O)NCCCN3CCCCCC3)ccc21,"inconclusive [inhibitor, single point]",
Cc1nn(C)c(C(=O)Nc2ccc(Cl)c([N+](=O)[O-])c2)c1Cl,,inactive: 3.72%
CCn1c(SCC(=O)Nc2ccccc2C(=O)OC)nnc1-c1ccc(N)cc1,,inactive: -12.9%
COc1ccccc1N1CCN(C(=O)c2cc(CC(C)C)on2)CC1,"inconclusive [inhibitor, partial curve]",
O=C(C[N+]1(CCO)CCOCC1)c1cccc2ccccc12,,inactive: 3.52%
CCOc1ccc(N2CC(C(=O)NC3CCCCCC3)CC2=O)cc1 (stereo unspecified),,inactive: 18.8%
Cc1cccc(C(C)C)c1NC(=O)Cn1c(=O)oc2cc(S(=O)(=O)N3CCCC3)ccc21,active: 18.4 µM,
CCc1nc2c(OCc3cccc(Cl)c3)cccn2c1N(C)C(=O)Nc1ccccc1OC,active: 18.4 µM,
CCc1ccc(NC(=O)CSc2nnc(-c3cccs3)n2CC)cc1,"inconclusive [inhibitor, single point]",
CCCn1nc(C(=O)Nc2cc(S(=O)(=O)Nc3ccc(OC)cc3)ccc2O)c2ccccc2c1=O,"inconclusive [inhibitor, partial curve]",
C=C(C)C1CC=C(C)/C(=N/NC(=O)CCC(=O)Nc2ccccc2Cl)C1 (stereo unspecified),,inconclusive: -35.2% [inhibitor]
CN(C)c1cccc(C(=O)OC(C(=O)Nc2ccc(Cl)cc2C(F)(F)F)c2ccccc2)c1 (stereo unspecified),"inconclusive [inhibitor, single point]",
CC(NCC(=O)Nc1cc(Cl)cc(Cl)c1)c1ccccc1 (stereo unspecified),"inconclusive [inhibitor, partial curve]",
CCOC(=O)c1c(O)c(Cl)c(C)[nH]c1=O,"inconclusive [inhibitor, partial curve]",
O=C(Nc1ccccc1C(=O)OCc1cc(=O)n2c3c(sc2n1)CCCC3)c1ccc(F)cc1,,inactive: -22.2%
Nc1ccc(C(=O)N2CCN(S(=O)(=O)c3ccc(Br)cc3)CC2)cc1[N+](=O)[O-],"inconclusive [inhibitor, single point]",
Cc1ccc(Cc2c(-c3ccc(Cl)cc3)nc3c(C)cc(Br)cn23)cc1,active: 23.1 µM,

Structure (SMILES),Potency,"activity change, negative = growth inhibition"
COc1cccc(C(NC(C)=O)c2nc(-c3ccc(C)c(C)c3)cs2)c1 (stereo unspecified),"inconclusive [inhibitor, single point]",
C=CCCN(C1CCCC1)S(=O)(=O)c1ccccc1Br,"inconclusive [inhibitor, partial curve]",
COc1ccc(-c2nnc(NC(=O)C3=COCCO3)o2)cc1,"inconclusive [inhibitor, single point]",
O=C(CCn1nnnc1CN1CCOCC1)N1CCC(c2ccccc2F)C1 (stereo unspecified),,inactive: -14.9%
O=[N+]([O-])c1c(NCCO)cc(N2CCCCCC2)c2nonc12,,inactive: 6.61%
Cc1ccc(-n2c(SCC(=O)NCc3ccco3)nc3c(sc4ccccc43)c2=O)cc1,"inconclusive [inhibitor, single point]",
CCC(=O)c1cn(CCOc2ccccc2OC)c2ccccc12,"inconclusive [inhibitor, single point]",
CCCNc1c(NC(=O)COc2ccc(Cl)cc2)c(=O)oc2ccccc12,"inconclusive [inhibitor, partial curve]",
Cc1cn([C@H]2C[C@H](O)[C@@H](CCC(=O)NCC(c3ccccc3)c3ccccc3)O2)c(=O)[nH]c1=O,,inactive: -2.41%
Clc1ccc(-c2ccc(C=Nc3ccc(N4CCOCC4)cc3)o2)cc1,"inconclusive [inhibitor, full curve, poor fit]",
Cc1cccc(NC(=O)Cn2c(=O)n(C)c3ccccc32)c1,"inconclusive [inhibitor, single point]",
CC(C)Sc1ccccc1C(=O)Nc1ccc2c(c1)n(C)c(=O)n2C,,inactive: -17.7%
COc1ccc([C@H]2CC(=O)C=C(c3ccc4c(c3)OCO4)C2)cc1OC,"inconclusive [inhibitor, partial curve]",
COC(=O)CCC(=O)NC(=S)Nc1sc(C)c(C)c1C(N)=O,active: 0.164 µM,
CCOC(=O)Cc1csc(NC(=O)CSc2nnnn2-c2ccc(C)c(C)c2)n1,"inconclusive [inhibitor, single point]",
CC(C)c1ccc(OCC(=O)NCCO)cc1,"inconclusive [inhibitor, single point]",
Cc1cnc(-n2ncc(C(=O)NCc3ccncc3)c2C2CC2)nc1-c1cccs1,"inconclusive [inhibitor, single point]",
CCCCCCCCCCCCCCCC(=O)OC[C@H](O)[C@H]1OC(=O)C(O)=C1O,,inactive: 9.55%
Cc1ccccc1NC(=O)COC(=O)CCSc1ccccc1,,inactive: -4.36%
COc1ccc2c(c1)c(=O)oc1cc(OCC(=O)N3CCCC(C)C3)ccc12 (stereo unspecified),"inconclusive [inhibitor, single point]",
Cc1cccc(NC(=O)c2nc[nH]c2C(=O)NCC(=O)OCc2ccccc2)c1,"inconclusive [inhibitor, partial curve]",
CCOC(=O)c1c(C)[nH]c(C(=O)OCC(=O)NCc2ccco2)c1C,active: 18.4 µM,
Cc1onc(-c2c(F)cccc2Cl)c1C(=O)Nc1ccccc1N1CCOCC1,"inconclusive [inhibitor, single point]",
Cc1cc(C(=O)N/N=C/c2cccc([N+](=O)[O-])c2)c(C)n1-c1ccccc1,"inconclusive [inhibitor, single point]",

Structure (SMILES),Potency,"activity change, negative = growth inhibition"
C=CCOc1ccc(/C=N\NC(N)=S)cc1,"inconclusive [inhibitor, single point]",
CCOc1cc(/C=N/N=C/c2ccc(O)c(OCC)c2)ccc1O,,inactive: -20.9%
N#C/C(=C\c1ccc(O)c(O)c1)C(=O)NCCCCc1ccccc1,active: 6.68 µM,
CC(C)c1ccc(NC(=O)CCCN2C(=S)NC(C)(C)CC2C)cc1 (stereo unspecified),"inconclusive [inhibitor, single point]",
CSc1ccc(/C=C/C(=O)NC(=O)c2ccccc2O)cc1,"inconclusive [inhibitor, single point]",
Cc1ccc(-c2cc(C(=O)NCCCN3CCCC3)c3ccccc3n2)cc1C,"inconclusive [inhibitor, single point]",
Cc1ccc(NC(=S)Nc2ccc(Cl)c(Cl)c2)c(OC(F)F)c1,active: 20.6 µM,
CN(C)C(=O)COc1ccc2ccc(=O)oc2c1,,inactive: 2.01%
Cc1ccc(N2CC(C(=O)Nc3nnc(SCCN4CCOCC4)s3)CC2=O)cc1C (stereo unspecified),,inactive: -19.3%
CC(C)c1cccc(-c2csc(C(O)c3cccc(Cl)c3)n2)c1 (stereo unspecified),active: 23.1 µM,
C=CCC(C)(NCc1ccccc1)c1ccc(C)cc1 (stereo unspecified),"inconclusive [inhibitor, single point]",
CC(C)n1c(O)c(N=NC(=O)c2ccccc2NS(=O)(=O)c2cccs2)c2ccccc21,"inconclusive [inhibitor, single point]",
C/C(=N\NC(=O)c1c(Cl)c(C)nn1C)c1ccc(NC(=O)c2ccncc2)cc1,"inconclusive [inhibitor, single point]",
CCOC(=O)C1(CCOC)CCN(C(=O)Cc2ccsc2)CC1,,inactive: 2.34%
CC(=O)c1ccc(NC(=O)C(C)N(C)CC(=O)Nc2ccccc2Cl)cc1 (stereo unspecified),,inactive: -5.9%
O=C1CC(C(=O)N2CCc3ccccc32)CN1c1ccc(F)cc1 (stereo unspecified),"inconclusive [inhibitor, full curve]",
CC12CCC(C(=O)NCc3ccccc3)(OC1=O)C2(C)C (stereo unspecified),,inactive: 1.54%
Cc1cc(C)n(CCCNC(=O)c2ccco2)n1,,inactive: 7.38%
C=CCNc1nc(N)c(C(=C(C#N)C#N)c2ccccc2)s1,"inconclusive [inhibitor, single point]",
O=C(COC(=O)C1=COCCO1)Nc1cc(Cl)c(Cl)cc1Cl,,inactive: -14.4%
COc1ccc(/C=N/NC(=O)c2sc(C)nc2C)cc1,"inconclusive [inhibitor, single point]",
C#CCOCCOCCOCCNc1nc(N2CCN(C(=O)C([C@@H](C)CC)n3cc(C(N)CC(C)C)nn3)CC2)nc(N2CCN(C(=O)[C@H](CCC(=O)O)n3cc(C(N)CC(C)C)nn3)CC2)n1 (stereo partly specified),"inconclusive [inhibitor, single point]",
COCc1c(C(=O)NC2CCCCCC2)oc2ccccc12,"inconclusive [inhibitor, partial curve, poor fit]",
